Test results published in PubChem BioAssay AID624417 (National Center for Advancing Translational Sciences (NCATS), 2012).
Hit rate of the full screen: of about 410,000 compounds, about 6,400 (1.6%) were called active. Inconclusive means that the source gave no clear call. Such entries were picked first, then a sample of the others. Calls come from the whole dose curve; as a rule, active = well fitted inhibition curve with a large enough effect; inconclusive = small, poorly fitted or top-dose-only effect; inactive = no such curve, though single readings can be large or run the other way. Potencies of inconclusive entries are left out as doubtful fits. Peptide text beside a SMILES is read from it. * marks the point of attachment. Cbz = O=C(OCc1ccccc1)*; OtBu = CC(C)(C)O*; tBu = CC(C)(C)*
% is set by controls: 0 for no effect and ±100 for the full control effect; potency is the fitted concentration of half-maximal effect; tags give direction and shape of the fitted curve.
Note: nearly all actives have a fitted effect of over 55% in size.

What follows are compounds tested against Glucagon-like peptide 1 receptor (Homo sapiens) (UniProt P43220) (assay: qHTS of GLP-1 Receptor Inverse Agonists (Inhibition Mode)). Settings: HEK293 GLP-1R CRE-luciferase, luminescence, 24 h, GLP-1R form is constitutively active; activity change, negative = inhibition: at 38.3 µM (top of the series) unless noted.
Sequence of UniProt P43220 (P43220 whole entry, looked up): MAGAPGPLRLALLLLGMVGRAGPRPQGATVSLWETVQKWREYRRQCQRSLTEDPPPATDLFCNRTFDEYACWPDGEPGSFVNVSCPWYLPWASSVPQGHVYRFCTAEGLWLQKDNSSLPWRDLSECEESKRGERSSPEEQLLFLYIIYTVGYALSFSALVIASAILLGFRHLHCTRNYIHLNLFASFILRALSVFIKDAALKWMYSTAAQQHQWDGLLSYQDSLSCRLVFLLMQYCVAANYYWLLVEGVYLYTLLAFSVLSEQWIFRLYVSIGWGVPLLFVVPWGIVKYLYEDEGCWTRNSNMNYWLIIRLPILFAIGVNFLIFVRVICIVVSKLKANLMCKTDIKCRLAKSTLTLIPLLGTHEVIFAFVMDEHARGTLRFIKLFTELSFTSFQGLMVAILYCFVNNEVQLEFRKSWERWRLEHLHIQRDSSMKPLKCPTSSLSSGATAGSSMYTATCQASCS
Method in brief: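 Constitutively active GLP-1R drives a cAMP-responsive luciferase in stably transfected HEK293 cells; test compounds are added after overnight (12 h) attachment and left 24 hr, and signal loss in luminescence marks inhibition.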
With `CCC(C)NC(=O)c1ccc2c(c1)sc1nc(-c3ccc(OC)cc3)cn12` (configuration not stated) the “activity change, negative = inhibition” value was inactive: -10%.
In the case of `COCc1nnc(NC(=O)c2cccc(NC(=O)c3ccccc3)c2)s1`, the Potency is reported as inconclusive [inhibitor, single point].
`CC(=O)N1CCC2(CC1)C(C#N)=C(N)Oc1n[nH]c(CSc3ccc(C)cc3)c12` was tested, and the Potency was inconclusive [inhibitor, single point].
`CCOc1ccc2nc(NS(=O)(=O)c3ccc(NC(C)=O)cc3)sc2c1` was tested, and the “activity change, negative = inhibition” value was inactive: 2.71%.
For `CC(=O)Nc1cccc(-c2ccnc3c2CC(C(=O)NCCc2ccccc2)O3)c1` (configuration not stated), the Potency was inconclusive [inhibitor, full curve, poor fit].
With `C=CCc1ccc(OCC(O)CN2CCCCC2C)c(OC)c1` (configuration not stated) the Potency was inconclusive [inhibitor, partial curve, poor fit].
With `CC(SCc1ccccc1)C(=O)Nc1ccccc1Br` (configuration not stated) the Potency was inconclusive [inhibitor, single point].
`CC(NC(=O)c1ccc2c(c1)OCO2)c1cccc(C(F)(F)F)c1` (configuration not stated) was tested, and the Potency was inconclusive [inhibitor, single point].
`CC(C)(C)c1nn(-c2ccccc2)c2[nH]c(=O)c(C=O)cc12` was tested, and the Potency was inconclusive [inhibitor, partial curve].
For `O=C(CC(CC(=O)c1ccc(Cl)cc1)c1ccccc1C(=O)O)c1ccc(Cl)cc1`, the Potency was inconclusive [inhibitor, single point].
For `O=C(Nc1ccccc1C(=O)OCc1cc(=O)n2nc(C3CC3)sc2n1)c1ccc(Cl)cc1`, the “activity change, negative = inhibition” value was inactive: 4.73%.
`c1ccc(-c2nc3ccccn3c2NC2CCCC2)nc1` was tested, and the Potency was inconclusive [inhibitor, partial curve, poor fit].
For `CC1Cc2nc(SCC(=O)NCc3ccccc3)n(Cc3ccccc3)c(=O)c2S1` (configuration not stated), the Potency was inconclusive [inhibitor, single point].
With `CCCCNC(=O)CCCCCn1c(=O)[nH]c2cc(OC)c(OC)cc2c1=O` the “activity change, negative = inhibition” value was inactive: 7.24%.
With `CC1(C)SC(=S)N(/N=C/c2ccccc2)C1N(O)C(=O)Nc1ccc([N+](=O)[O-])cc1` (configuration not stated) the Potency was inconclusive [inhibitor, partial curve, poor fit].
With `CCOC(=O)c1sc2nc(CSc3ccccc3)nc(NCCN(C)C)c2c1C` the Potency was inconclusive [inhibitor, partial curve, poor fit].
With `Cc1ccc(S(=O)(=O)N(C)C)cc1NC(=O)COC(=O)c1cccs1` the “activity change, negative = inhibition” value was inactive: 6.03%.
With `O=C(Nc1ccc(S(=O)(=O)N2CCCCC2)cc1)c1ccc(CN2CCc3ccccc3C2)cc1` the Potency was inconclusive [inhibitor, full curve, poor fit].
With `Cc1ccc(OCCCC(=O)NC(C)c2ccccc2)c(C)c1` (configuration not stated) the Potency was inconclusive [inhibitor, single point].
In the case of `Nc1ncn(C(=S)Nc2ccccc2)n1`, the Potency is reported as inconclusive [inhibitor, full curve, poor fit].
With `O=C(CNCc1ccccc1)NC1C2CC3CC(C2)CC1C3` (configuration not stated) the Potency was inconclusive [inhibitor, partial curve, poor fit].
With `Cc1ccccc1Cn1nc(C)c(NC(=O)c2noc3c2CCc2ccccc2-3)c1C` the Potency was inconclusive [inhibitor, partial curve, poor fit].
In the case of `O=C1CCC[C@@H]2C=C[C@H](c3ccc(Br)cc3)[C@H]3CCN1[C@@H]32`, the Potency is reported as inconclusive [inhibitor, single point].
With `Cc1ccc(NN2C(=O)C=C(c3ccccc3)C2=O)cc1` the Potency was inconclusive [inhibitor, single point].
In the case of `Cc1ccc2c(c1)COc1c3ccc(C(=O)NCC4CC4)cc3nn1-2`, the “activity change, negative = inhibition” value is reported as inactive: 14.3%.
`CCn1c(CN2CCN(c3cccc(C)c3C)CC2)n[nH]c1=S` was tested, and the Potency was inconclusive [inhibitor, single point].
In the case of `O=C1/C(=C\c2ccco2)SC(=S)N1Cc1ccccc1`, the Potency is reported as inconclusive [inhibitor, single point].
In the case of `Cc1c(C)n(Cc2ccccc2)c2ccc(C(=O)NCC(C)c3ccccc3)cc12` (configuration not stated), the Potency is reported as inconclusive [inhibitor, partial curve, poor fit].
In the case of `Cc1ccn(Cc2n[nH]c(=S)n2Cc2ccccc2)n1`, the “activity change, negative = inhibition” value is reported as inactive: -14.2%.
`CCCc1ccc(OCc2ccc(C(=O)N3CCSCC3)o2)cc1` was tested, and the Potency was inconclusive [inhibitor, single point].
With `Cc1cccc(C(C)C)c1-n1nnnc1-c1ccccc1` the Potency was inconclusive [inhibitor, partial curve, poor fit].
In the case of `O=C(c1ccc2c(c1)OCO2)N1CCC(Cc2ccccc2)CC1`, the Potency is reported as inconclusive [inhibitor, single point].
In the case of `CC(=O)c1ccc(OCC(O)CN2CCN(S(=O)(=O)c3cccc(Br)c3)CC2)cc1` (configuration not stated), the Potency is reported as inconclusive [inhibitor, partial curve, poor fit].
For `CC(C)c1ccc(C2CC(=O)Nc3cc4c(cc32)OCCO4)cc1` (configuration not stated), the Potency was inconclusive [inhibitor, single point].
`O=C(Nc1ccc2nc(SCc3ccc(Cl)cc3)sc2c1)c1ccccc1C(=O)N1CCOCC1` was tested, and the Potency was inconclusive [inhibitor, single point].
In the case of `CC(NC(=O)OCc1ccccc1)C(=O)NCC(=O)NC(Cc1ccc(OC(C)(C)C)cc1)C(=O)OC(C)(C)C` (stereo not drawn) (Cbz-Ala-Gly-Tyr(tBu)-OtBu; configuration not given here), the Potency is reported as inconclusive [inhibitor, single point].
`COc1ccc(/C=C/C(=O)c2c(O)ccc3c(C)cc(=O)oc23)cc1` was tested, and the Potency was inconclusive [inhibitor, partial curve, poor fit].
In the case of `CN(C)c1ccc(CNC(=O)C2(C)Cc3c(-c4cccc(C(F)(F)F)c4)ccnc3O2)cc1` (configuration not stated), the Potency is reported as inconclusive [inhibitor, full curve].
With `CCN1CCc2c(OCc3ccccc3)cccc2C1=O` the Potency was inconclusive [inhibitor, partial curve, poor fit].
With `CSc1ncnc2c1ncn2CC(=O)C1CCC2C3CCC4=CC(=O)CCC4(C)C3CCC12C` (configuration not stated) the Potency was inconclusive [inhibitor, single point].
For `O=C(OCC(=O)N(c1ccccc1)C1CCCCC1)c1ccc(CO)cc1`, the Potency was inconclusive [inhibitor, full curve, poor fit].
In the case of `CCN(CC(=O)Nc1ccccc1OC)C(=O)CCOc1ccc(C(C)(C)C)cc1`, the Potency is reported as inconclusive [inhibitor, partial curve, poor fit].
In the case of `CCn1c(C)c(C2=CCN(S(=O)(=O)c3ccccc3)CC2)c2ccccc21`, the Potency is reported as inconclusive [inhibitor, single point].
`O=C(CSc1nc2ccccc2s1)Nc1ccc(Cl)c(S(=O)(=O)N2CCOCC2)c1` was tested, and the Potency was inconclusive [inhibitor, partial curve, poor fit].
For `Cc1ccc2nc(-c3cccc(Br)c3)cc(C(=O)NCC3CCCO3)c2c1` (configuration not stated), the “activity change, negative = inhibition” value was inactive: 2.84%.
For `O=C(CCN1CCCCC1)Nc1ccc(F)c(F)c1`, the “activity change, negative = inhibition” value was inactive: 0.244%.
With `O=C(Cc1sc(Nc2ccccc2)nc1-c1ccccc1)NCc1ccccc1` the Potency was inconclusive [inhibitor, full curve].
In the case of `O=C1[C@@H]2Cc3c([nH]c4ccccc34)C(c3cccc(Br)c3)N2C(=O)CN1C1CCN(Cc2ccccc2)CC1` (some centres not stated), the Potency is reported as active: 3.16 µM.
For `CN1CCN(S(=O)(=O)c2ccc(C(F)(F)F)cc2)C(c2ccccc2)C1` (configuration not stated), the Potency was inconclusive [inhibitor, single point].
In the case of `CCOC(=O)C1=C(C)NC2=C(C(=O)C(C(=O)OCC)C(c3ccc(OC)cc3)C2)C1c1ccccn1` (configuration not stated), the Potency is reported as inconclusive [inhibitor, full curve, poor fit].
With `Cc1cc(C(=O)N2CCCC(C(=O)c3ccc(Oc4ccccc4)cc3)C2)n[nH]1` (configuration not stated) the Potency was inconclusive [inhibitor, partial curve, poor fit].
`c1ccc(-c2noc(CSc3nc4ccccc4o3)n2)cc1` was tested, and the Potency was inconclusive [inhibitor, single point].
For `COC(=O)Oc1c(Br)c(=O)oc2ccccc12`, the “activity change, negative = inhibition” value was inactive: 1.08%.
`CSc1nc(-c2ccccc2)nc(N2CCN(C)CC2)c1C(C)=O` was tested, and the Potency was active: 3.16 µM.
In the case of `O=C(Cc1ccc(Cl)cc1)Nc1ccc(S(=O)(=O)N2CCOCC2)cc1`, the Potency is reported as inconclusive [inhibitor, single point].
In the case of `COc1cccc(S(=O)(=O)NCc2ccc(C(=O)NCc3ccccn3)cc2)c1`, the Potency is reported as inconclusive [inhibitor, partial curve, poor fit].
With `COc1ccc(N2CCN(C(=O)CSc3nnc(CNc4ccccc4)o3)CC2)cc1` the Potency was inconclusive [inhibitor, partial curve, poor fit].
`Cc1ccc2oc(C(=O)Nc3c(C(=O)Nc4cccc(Cl)c4)oc4ccccc34)cc(=O)c2c1` was tested, and the “activity change, negative = inhibition” value was inactive: -4.25%.
With `CN(C)CCN(CC1CCCN(Cc2ccccc2F)C1)C(=O)c1ccc(F)cc1` (configuration not stated) the Potency was inconclusive [inhibitor, single point].
For `COc1ccc(-c2ccc(C(=O)NCc3cccs3)c3occc23)c(C)c1`, the Potency was inconclusive [inhibitor, partial curve, poor fit].
With `COc1c(Cl)cc(C(=O)Nc2cc(-c3nc4ccccc4[nH]3)ccc2C)cc1Cl` the Potency was inconclusive [inhibitor, partial curve].
`O=C(Nc1ccc2c(c1)OCO2)c1ccc(COc2ccc3c(c2)CCC3)o1` was tested, and the Potency was inconclusive [inhibitor, single point].
